Results: paper PMC6624267
Results are given in words; binding and its absence hold for the method and conditions named. For some of these results: Binding seen in cells or lysates may run through a third protein. Some results given as binding are weak or reduced against the parent protein; the word gives no strength. Values belong to the binder of their own block, whether it stands above or below them.

Assays:
CARD9^2−97 R29D (human) = CARD9^2−97 R29D (human) (UniProt Q9H257); test: absorbance at 350 nm + other: negative-stain EM; CARD9^2−97 polymerisation: 1:1 Zn2+-bound CARD, EDTA added at t = 0; 50 mM Tris, 150 mM NaCl, 0.5 mM TCEP, pH 7.0, 25 °C, shaking; NS-EM grids at 90 min; both purified
CARD9^2−97 R35E (human) = CARD9^2−97 R35E (human) (UniProt Q9H257); test: as above
CARD9^2−97 D66R (human) = CARD9^2−97 D66R (human) (UniProt Q9H257); test: as above
CARD9^2−97 E15R (human) = CARD9^2−97 E15R (human) (UniProt Q9H257); test: as above
CARD9^2−97 D43R (human) = CARD9^2−97 D43R (human) (UniProt Q9H257); test: as above
CARD9^2−97 K58D (human) = CARD9^2−97 K58D (human) (UniProt Q9H257); test: as above
[1] = target: CARD9^2−97 R35Q (clinically identified mutant) (human) (UniProt Q9H257); test: as above
[2] = target: CARD9^1−142/WT-mEos3.1 (yeast) (UniProt Q9H257); test: FRET or BRET; DAmFRET: mEos3.1 fusions expressed over a range of concentrations in S. cerevisiae, partly photoconverted, read by flow cytometry; self-assembly
[3] = target: CARD9^1−142/I107E-mEos3.1 (yeast) (UniProt Q9H257); test: as above
[4] = target: CARD9^2−152/L115I (human) (UniProt Q9H257); test: condition: only at 25 °C, 10 min after Zn2+ removal; negative-stain EM; CARD9^2–152 constructs purified 1:1 with Zn2+, Zn2+ removed with a twofold excess of EDTA, incubated at the indicated concentration, time and temperature; 50 mM HEPES, 150 mM NaCl, 0.5 mM TCEP, pH 7.0; step: dimers to filaments; both purified

B3: CARD9^2−97 D66R (domain or fragment, UniProt Q9H257 2-97)
chain: SDYENDDECWSVLEGFRVTLTSVIDPSRITPYLRQCKVLNPDDEEQVLSDPNLVIRKRKVGVLLRILQRTGHKGYVAFLESLELYYPQLYKKVTGK
binding (CARD9^2−97 D66R (human)): no binding (tested: 1 mM)

B5: CARD9^2−97 D43R (domain or fragment, UniProt Q9H257 2-97)
chain: SDYENDDECWSVLEGFRVTLTSVIDPSRITPYLRQCKVLNPRDEEQVLSDPNLVIRKRKVGVLLDILQRTGHKGYVAFLESLELYYPQLYKKVTGK
binding (CARD9^2−97 D43R (human)): no binding (tested: 1 mM)

B8: CARD9^1−142/WT-mEos3.1 (yeast) (domain or fragment, UniProt Q9H257 1-142)
chain: MSDYENDDECWSVLEGFRVTLTSVIDPSRITPYLRQCKVLNPDDEEQVLSDPNLVIRKRKVGVLLDILQRTGHKGYVAFLESLELYYPQLYKKVTGKEPARVFSMIIDASGESGLTQLLMTEVMKLQKKVQDLTALLSSKDD
binding [2]: binds

B9: CARD9^1−142/I107E-mEos3.1 (yeast) (domain or fragment, UniProt Q9H257 1-142)
chain: MSDYENDDECWSVLEGFRVTLTSVIDPSRITPYLRQCKVLNPDDEEQVLSDPNLVIRKRKVGVLLDILQRTGHKGYVAFLESLELYYPQLYKKVTGKEPARVFSMIEDASGESGLTQLLMTEVMKLQKKVQDLTALLSSKDD
binding [3]: binds

Next, values leading:

binding (CARD9^2−97 R29D (human)): no binding (tested: 1 mM)
B1: CARD9^2−97 R29D (domain or fragment, UniProt Q9H257 2-97)
chain: SDYENDDECWSVLEGFRVTLTSVIDPSDITPYLRQCKVLNPDDEEQVLSDPNLVIRKRKVGVLLDILQRTGHKGYVAFLESLELYYPQLYKKVTGK

binding (CARD9^2−97 R35E (human)): no binding (tested: 1 mM)
B2: CARD9^2−97 R35E (domain or fragment, UniProt Q9H257 2-97)
chain: SDYENDDECWSVLEGFRVTLTSVIDPSRITPYLEQCKVLNPDDEEQVLSDPNLVIRKRKVGVLLDILQRTGHKGYVAFLESLELYYPQLYKKVTGK

binding (CARD9^2−97 E15R (human)): no binding (tested: 1 mM)
B4: CARD9^2−97 E15R (domain or fragment, UniProt Q9H257 2-97)
chain: SDYENDDECWSVLRGFRVTLTSVIDPSRITPYLRQCKVLNPDDEEQVLSDPNLVIRKRKVGVLLDILQRTGHKGYVAFLESLELYYPQLYKKVTGK

binding (CARD9^2−97 K58D (human)): no binding (tested: 1 mM)
B6: CARD9^2−97 K58D (domain or fragment, UniProt Q9H257 2-97)
chain: SDYENDDECWSVLEGFRVTLTSVIDPSRITPYLRQCKVLNPDDEEQVLSDPNLVIRDRKVGVLLDILQRTGHKGYVAFLESLELYYPQLYKKVTGK

binding [1]: no binding
B7: CARD9^2−97 R35Q (clinically identified mutant) (domain or fragment, UniProt Q9H257 2-97)
chain: SDYENDDECWSVLEGFRVTLTSVIDPSRITPYLQQCKVLNPDDEEQVLSDPNLVIRKRKVGVLLDILQRTGHKGYVAFLESLELYYPQLYKKVTGK

binding [4]: no binding
B10: CARD9^2−152/L115I (domain or fragment, UniProt Q9H257 2-152)
chain: SDYENDDECWSVLEGFRVTLTSVIDPSRITPYLRQCKVLNPDDEEQVLSDPNLVIRKRKVGVLLDILQRTGHKGYVAFLESLELYYPQLYKKVTGKEPARVFSMIIDASGESGITQLLMTEVMKLQKKVQDLTALLSSKDDFIKELRVKDS
